We go through 88 sequences from the supplement of paper PMC11417369.

This is one part of the list.

In this experiment the test system is PfAP2-HC AP2 domain (GST-tagged). Nature of the experiment: gcPBM binding intensity (ln(normalized median fluorescence intensity)); higher = stronger DNA binding. The procedure, abridged: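 Binding intensity is the highest Masliner-normalised natural-log median intensity over replicate spots in either probe orientation. To obtain it, GST-tagged P. falciparum DNA-binding domains made in E. coli were incubated for 1 h on an Agilent 4 × 180k array of primer-extended double-stranded 36-bp intergenic genomic probes plus negative controls. Detection used Alexa488 anti-GST antibody with scanning at 488 nm.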
Turning to “TATAGAAGCATTCACACACACACATACATACACATA [CACACA_site1466]”, the “gcPBM binding intensity (ln)” value was found to be 10.6. The figure for “TAACAAAAAGGGAACACATGCGCTCTTTATTTATTT [TGCATGCA_site620]” is 9.79. The figure for “ATAATATTAATATGTACACACCTTAATCCTTAAAAG [CACACA_site7640]” is 9.72; for “GTATTTATATGATTAACACACATATGGGTATTAATA [CACACA_site4853]” it is 9.7. The figure for “ATAATTTTTTAAGTGTGTACTAAAATGTGTATTTTA [XGTACX_site6227]” is 9.71. For “TATACCTGAATTAAAAGTACATGTATATATTTTCCC [XGTACX_site3594]”, the “gcPBM binding intensity (ln)” value was determined as 9.44. Next, “ATAAATGACAAATTAACACACATATATTATAGATAT [CACACA_site7770]”: 9.86. As for “ATCTATATTTAATTTACACACAAAAAAAATTGTTGG [CACACA_site6582]”, the “gcPBM binding intensity (ln)” value was found to be 9.75. Next, “AAAATGTGATATGTAAATATATATGTATGTATATAT [CACACA_negctrl_site1748]”: 9.86. The figure for “TAATGCATTTTCGCATGTACATATTTCTCTTTATAT [XGTACX_site8915]” is 9.69; for “TATTATAGAAATTTAATGTTGGACAAAAAAATGAAA [CACACA_negctrl_site1351]” it is 9.51. Turning to “TCTTAATATCGTTTCTCACACATATACAAACATAAA [CACACA_site5700]”, the “gcPBM binding intensity (ln)” value was found to be 9.61. “AATATATGAATTATATGTACATATAGATAAGTCACA [XGTACX_site7637]”: the “gcPBM binding intensity (ln)” value is 9.86. Regarding “AGAGAGAAAGCTATAACATGCAACAATTTTTAGAAC [TGCATGCA_site596]”, the “gcPBM binding intensity (ln)” value was determined as 9.72. In the case of “AAATTATTTATTTTATGTACATATTATTAAAGTTAA [XGTACX_site552]”, the “gcPBM binding intensity (ln)” value was 9.48.

With “TTTCCCTTGTTGTAAACATGCACAATATTTAGGTAT [TGCATGCA_site49]”, the “gcPBM binding intensity (ln)” value stood at 9.75. Turning to “AAAAAAAAGAAAAACACACACATATATATATAGAAT [CACACA_site1006]”, the “gcPBM binding intensity (ln)” value is 11.3. The figure for “TTATGTATTTATATAAATATAAATATATATATATAT [CACACA_negctrl_site774]” is 9.39; for “TATATTTATAGGTATACACACATATGTATGTTATGT [CACACA_site7824]” it is 10.2. The figure for “ACAAAAATAAACTATAGTACACACTTATTATTATGA [XGTACX_site5680]” is 9.82. With “TCATTTTATTTTTTCACACACACATCTATATTTATA [CACACA_site7547]”, the “gcPBM binding intensity (ln)” value came to 10.2. The figure for “TAAGTAACTTTTAAAAGTACCCACACATATATATAT [XGTACX_site1231]” is 9.77; for “TTTCTTTTTTTTTTTTTTTTTTTTTTTTTTTTTTTT [TGCATGCA_negctrl_site91]” it is 9.13; for “AAAAAAAAAAATACTCGTACATAAACCTATACATTT [XGTACX_site6494]” it is 9.67. Next, “CAATTAGCATTTTATTGTACATTTATAATCTATGAT [XGTACX_site1445]”: 9.61; “AGTATACAGATATATACACACATATATATATATATA [CACACA_site4323]”: 9.96; “ATAATATATTTTTGTAGTACACTTCTGGTAATATCG [XGTACX_site2402]”: 9.6. For “CTTAGAATATATGAATGTACTTTTTTTTTTAAATAA [XGTACX_site6048]”, the “gcPBM binding intensity (ln)” value was 9.35. As for “TATATATATATATGTTGTACAAAAATGTAAAATATA [XGTACX_site7761]”, the “gcPBM binding intensity (ln)” value is 9.88.

For the sequence “ATACATATAAATAATTGTACTATTAAAAAAGAACGT [XGTACX_site3751]”, the “gcPBM binding intensity (ln)” value came to 9.75. Take “AGCTATAATAAATATACACACATATATAAATATGTA [CACACA_site6583]”: the “gcPBM binding intensity (ln)” value is 9.69. As to ATATATATATAATAAGTGCAAAAATAATGACCTATA, the “gcPBM binding intensity (ln)” value was 9.84. As to “AAATATATATAAGCGTGTACACATTCTGAGTGTTGT [XGTACX_site1088]”, the “gcPBM binding intensity (ln)” value stood at 9.97. For “ATAATAAAAATAAAATGTACATACATAAATATATAT [XGTACX_site6228]”, the “gcPBM binding intensity (ln)” value is 9.86. Next, “TATCGTTTTATTCGGTTGCACCAAAAAAATAAAATA [GTGCAC_site9408]”: 9.27; “AAAGTATAACGGATACCATTTATGTGATTATTTTGT [XGTACX_negctrl_site188]”: 9.63. The figure for “AAAAAAAATTAAAATAAAATATAAATATAAAATATA [GTGCAC_negctrl_site714]” is 9.57.

As for “TATATATTTTTATGCACACACAAAGAAAATTTTCCT [CACACA_site2863]”, the “gcPBM binding intensity (ln)” value stood at 9.94.

Consider “TGTATGTATTTGTGTAGTACGCATAAGTAATAAAAC [XGTACX_site6704]”, for which the “gcPBM binding intensity (ln)” value was 9.8. “AATTTATATTAAAATTGTACATTTCTTCTATAATAC [XGTACX_site8639]”: the “gcPBM binding intensity (ln)” value was 9.59.

On to “AAATAAAAAAAATAAAAGCAATCATAATAAAAATCT [CACACA_negctrl_site161]”, for which the “gcPBM binding intensity (ln)” value came out at 9.74.

As to “AATATATTTAATGAGTGTACATTATTTATTATTATT [XGTACX_site6889]”, the “gcPBM binding intensity (ln)” value was 9.75. For “ATACTTTTAATATGCACATGCAAATATGAAATATCG [TGCATGCA_site603]”, the “gcPBM binding intensity (ln)” value was determined as 9.51.

Turning to “TTTGGCTAGTCAAGTTGTACAAAAAAAAAAAAAAAA [XGTACX_site8382]”, the “gcPBM binding intensity (ln)” value amounted to 9.27.

On to “TACCAAAAGAAACACACACACAAAATATATAAATAT [CACACA_site1869]”, for which the “gcPBM binding intensity (ln)” value is 10.6. For the sequence “TCCCATATATATATATATATATATATATATAATAAT [TGCATGCA_negctrl_site41]”, the “gcPBM binding intensity (ln)” value was determined as 9.58. Take “TTATATGTATTTCTTTGTACACATTTTTATATATAT [XGTACX_site1462]”: the “gcPBM binding intensity (ln)” value came out at 9.88.

On to “TAAATTTTATAAATCTGTACATATGAGCAAGAACAT [XGTACX_site7400]”, for which the “gcPBM binding intensity (ln)” value was 9.65. Consider “TATCATTTTTTTAAAACACACATAATAATATAAATA [CACACA_site2845]”, for which the “gcPBM binding intensity (ln)” value was found to be 9.47. The figure for “ATTATGCACCAACACACACACACACCCCTAAAAAAT [CACACA_site2568]” is 10.8; for “CACTTCAAAAAAATATGTACACATATATATATATAT [XGTACX_site3075]” it is 9.77; for “GGTAATAAACAATGAAGTACGTAAAGGTAAAATATT [XGTACX_site2647]” it is 10.3.

Consider “TTATTAGGTATATATGCACACAATACCCAAAACAAC [CACACA_site4221]”, for which the “gcPBM binding intensity (ln)” value stood at 9.82. Next, “TAATAATCAAACTATACACACATAAATAGATATATA [CACACA_site6220]”: 9.98; “ATTTAATTTTCATGATGTACTATAGTTTAATGCACA [XGTACX_site1624]”: 9.74. The figure for “TGTAAATATAAATGTAATAAATATGTAAAAATAAAT [XGTACX_negctrl_site171]” is 9.6. Next, “TATTTTCAAAAATATACACACACATAAATATATGTA [CACACA_site8160]”: 10.2; “CACAGATAAATTAACACACACACACGGATATTTATA [CACACA_site7788]”: 10.8. Turning to “TTCCTTCAAAATTTAAGTAATAAGATAAAAATATAA [CACACA_negctrl_site1696]”, the “gcPBM binding intensity (ln)” value was 9.26. Next, “ATGTATACAAATATATGTACGTATGTTCTCTTCTTT [XGTACX_site7865]”: 9.82; “TAAAGAGTTACCATTTGTACTTACGCACACATAAAA [XGTACX_site3145]”: 9.85; “TTTTTATGTTATCAAATAAATATAAATATAATTCAT [CACACA_negctrl_site1522]”: 9.32. With “TATATTTGAAATATATGTACTTATAATACAGTTTAA [XGTACX_site8039]”, the “gcPBM binding intensity (ln)” value is 9.46. As for “ATATATAAATTTAATACACACCCAAAAAAAAAAAAA [CACACA_site7719]”, the “gcPBM binding intensity (ln)” value was 9.82.

Regarding “GAATGAATACGTTTTACACACTTGAATATAATTTCA [CACACA_site989]”, the “gcPBM binding intensity (ln)” value came to 9.67. As for “TAAATATATAAACACACACACATTAATACAGATATT [CACACA_site5851]”, the “gcPBM binding intensity (ln)” value worked out at 10.4. Next, “AAAATTATAAAATGGGCACACATGAAGATTGTAGTA [CACACA_site2226]”: 9.98; “TATTAATACAGACACACACACACACTAATTAAAATA [CACACA_site7967]”: 10.7.

For “ATTTACCCTTGCCATGCACACTTTTTTATAGAAAAT [CACACA_site5857]”, the “gcPBM binding intensity (ln)” value was determined as 10.

“AATATATAATTAATTGCACACCTTGTCACGCCAAAA [CACACA_site1174]”: the “gcPBM binding intensity (ln)” value amounted to 9.64. Next, “ATCTATATTTTTATAACACACAATGATGTACATTAC [CACACA_site6633]”: 9.9; “TGAAAATATTTTATATGTACATATATTATCAATACA [XGTACX_site92]”: 9.58.

Turning to “TAGAATAATCTATAAACACACAAACCCAACAAAAGA [CACACA_site6132]”, the “gcPBM binding intensity (ln)” value worked out at 10.6. The figure for “TTATTTATTTTTTCATGTACTTAAATATATTAATGT [XGTACX_site5804]” is 9.67. Next, “AAATATTAAATGGAAAACAAATATATATATCTTAAT [XGTACX_negctrl_site383]”: 9.66.

Take “ATATATTGAACCTATGCATGTAAAATATATGTAATA [TGCATGCA_site644]”: the “gcPBM binding intensity (ln)” value is 9.69. The figure for “TGTGTGGATATATGTATGCACTACCCTTTGGGTCAT [GTGCAC_site9506]” is 9.67; for “TGTAAGTATTCTTGAGGTACACATATAAATATAGTA [XGTACX_site3207]” it is 9.57; for “AATATTATATAATAAAGTACATATATATTCATATTT [XGTACX_site7204]” it is 9.64. The figure for “ATATATATATATAGGAGTACATGAAATACTTAAAAA [XGTACX_site8851]” is 9.76; for “AAAAAAGAAATAATCAAATAAATAAAAAAGATGAAT [XGTACX_negctrl_site607]” it is 9.78; for “GTGTGAAGATATAAATGCATTTTTTTATACATTTTC [CACACA_negctrl_site117]” it is 9.66. As for “TATAAATACATCCTATACTTCTCTTTTACAGTTTTA [CACACA_negctrl_site1283]”, the “gcPBM binding intensity (ln)” value was determined as 9.62. The figure for “GACATTAATTATTTGACACACGACTGGGTGGTGATT [CACACA_site306]” is 9.7. As to “TTTTTTTTTTATACATGTACTTAAAAGTAGCACCTT [XGTACX_site1855]”, the “gcPBM binding intensity (ln)” value was 9.54. The figure for “TGATTCAATTTATGCACACTAAAAATTAATTATATT [CACACA_site271]” is 9.65; for “ATTATATATACAACAAGTACAAAAGAAAAATATTAT [XGTACX_site2914]” it is 9.66; for “TTTGTAAAAGGTCATACACACATATTCAAAAGAAGT [CACACA_site2947]” it is 10.
